Test in all cases: co-IP; HEK293 cells co-transfected with HA-RAB3A constructs and myc-flag-RIM1; lysates (20 mM Tris-HCl pH 7.5, 150 mM NaCl, 1 mM EDTA, 0.3% Triton-X100, 10% glycerol) incubated with magnetic anti-HA beads for 1 h at 4 °C; input and IP blotted for Flag and HA
The target in experiment [1] is T1, HA-tagged RAB3A Q81L (mimicking the GTP-bound state) (UniProt P20336).
T1 sequence: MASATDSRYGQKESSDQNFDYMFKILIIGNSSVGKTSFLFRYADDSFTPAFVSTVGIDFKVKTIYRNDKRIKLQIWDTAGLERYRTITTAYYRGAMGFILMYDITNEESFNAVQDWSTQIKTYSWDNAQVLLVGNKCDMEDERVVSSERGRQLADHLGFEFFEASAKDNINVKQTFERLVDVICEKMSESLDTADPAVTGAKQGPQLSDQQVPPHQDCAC

Chains of the proteins cited; added tags and fusions are not shown.
UniProt Q86UR5: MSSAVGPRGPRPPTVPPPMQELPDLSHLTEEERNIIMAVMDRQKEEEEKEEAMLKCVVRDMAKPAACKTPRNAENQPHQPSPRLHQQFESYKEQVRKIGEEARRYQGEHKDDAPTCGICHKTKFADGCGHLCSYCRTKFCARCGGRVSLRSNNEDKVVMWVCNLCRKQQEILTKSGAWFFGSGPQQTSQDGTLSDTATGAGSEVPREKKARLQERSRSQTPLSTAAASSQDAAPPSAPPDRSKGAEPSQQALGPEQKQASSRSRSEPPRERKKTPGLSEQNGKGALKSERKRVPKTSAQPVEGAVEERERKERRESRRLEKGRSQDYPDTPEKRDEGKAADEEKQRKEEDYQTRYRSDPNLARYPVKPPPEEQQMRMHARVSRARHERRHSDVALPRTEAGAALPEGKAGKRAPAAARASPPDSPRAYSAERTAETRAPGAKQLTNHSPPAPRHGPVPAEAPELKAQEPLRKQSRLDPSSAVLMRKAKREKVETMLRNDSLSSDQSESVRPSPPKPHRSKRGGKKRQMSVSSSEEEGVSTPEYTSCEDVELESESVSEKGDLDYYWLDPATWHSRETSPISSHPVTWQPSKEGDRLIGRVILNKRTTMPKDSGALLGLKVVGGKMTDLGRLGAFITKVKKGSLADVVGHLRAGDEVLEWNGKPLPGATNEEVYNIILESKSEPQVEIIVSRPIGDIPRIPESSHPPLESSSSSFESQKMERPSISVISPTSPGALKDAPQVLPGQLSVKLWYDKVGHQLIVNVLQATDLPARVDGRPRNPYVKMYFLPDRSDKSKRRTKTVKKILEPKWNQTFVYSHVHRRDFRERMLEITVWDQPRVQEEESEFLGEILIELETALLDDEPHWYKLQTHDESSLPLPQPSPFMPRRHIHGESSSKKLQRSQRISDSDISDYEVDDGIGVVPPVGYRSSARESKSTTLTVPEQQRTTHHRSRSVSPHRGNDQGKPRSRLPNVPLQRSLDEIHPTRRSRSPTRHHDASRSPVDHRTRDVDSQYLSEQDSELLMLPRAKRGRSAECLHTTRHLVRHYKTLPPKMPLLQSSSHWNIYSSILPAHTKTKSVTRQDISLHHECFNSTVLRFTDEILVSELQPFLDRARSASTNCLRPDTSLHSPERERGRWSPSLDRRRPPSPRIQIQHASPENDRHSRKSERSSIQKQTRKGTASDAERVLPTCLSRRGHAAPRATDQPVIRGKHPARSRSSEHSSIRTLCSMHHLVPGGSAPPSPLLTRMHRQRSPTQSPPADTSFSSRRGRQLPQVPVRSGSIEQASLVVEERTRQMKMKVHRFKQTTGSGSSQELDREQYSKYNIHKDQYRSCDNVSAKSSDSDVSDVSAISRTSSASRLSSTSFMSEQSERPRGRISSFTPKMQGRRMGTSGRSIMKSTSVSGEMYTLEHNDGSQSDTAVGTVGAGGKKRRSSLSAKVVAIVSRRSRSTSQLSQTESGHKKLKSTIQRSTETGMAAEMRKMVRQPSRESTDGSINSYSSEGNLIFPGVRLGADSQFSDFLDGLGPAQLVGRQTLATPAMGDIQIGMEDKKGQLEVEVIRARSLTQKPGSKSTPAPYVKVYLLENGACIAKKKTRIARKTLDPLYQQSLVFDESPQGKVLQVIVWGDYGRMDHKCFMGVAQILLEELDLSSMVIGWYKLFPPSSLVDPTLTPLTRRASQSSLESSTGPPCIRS

Experiment [2] concerns the target T2, HA-tagged RAB3A T86A (phospho-deficient) (UniProt P20336).
T2 sequence: T1 sequence with L81Q, T86A

The target of experiment [3] is T3, HA-tagged RAB3A T86E (phospho-mimic) (UniProt P20336).
T3 sequence: T1 sequence with L81Q, T86E

For experiment [4], the target named is T4, HA-tagged RAB3A T36N (mimicking the GDP-bound state) (UniProt P20336).
T4 sequence: T1 sequence with T36N, L81Q

Experiment [5] deals with T5, HA-tagged RAB3A wild type (UniProt P20336).
T5 sequence: T1 sequence with L81Q

Numbering of substitutions follows the chain as printed. Results are given in words; binding and its absence hold for the method and conditions named. In cells and extracts the contact can be indirect. Some results given as binding are weak or reduced against the parent protein; the word gives no strength. Tags and fused reporters may be left off the sequences shown.

Consider “myc-flag-RIM1 (from UniProt Q86UR5 1-1692)”, for which the binding result is on record as “binds” in experiment [1]; “binds” in experiment [2]; “binds” in experiment [3]; “no binding” in experiment [4]; “binds” in experiment [5].

Values taken from article PMC13522591.
